PubChem BioAssay AID1460 (National Center for Advancing Translational Sciences (NCATS), 2008)
Hit rate of the full screen: of about 270,000 compounds, about 5,800 (2.1%) were called active. This list was built around the results that the source calls inconclusive (neither active nor inactive); the mix of calls is not that of the screen. Calls come from the whole dose curve; as a rule, active = well fitted inhibition curve with a large enough effect; inconclusive = small, poorly fitted or top-dose-only effect; inactive = flat fitted curve, though single readings scatter. A potency beside an inconclusive call is a rough fit, not a confirmed value.

Molecular target: Microtubule-associated protein tau (Homo sapiens) (UniProt P10636)
Chain of UniProt P10636 (P10636 whole entry, looked up): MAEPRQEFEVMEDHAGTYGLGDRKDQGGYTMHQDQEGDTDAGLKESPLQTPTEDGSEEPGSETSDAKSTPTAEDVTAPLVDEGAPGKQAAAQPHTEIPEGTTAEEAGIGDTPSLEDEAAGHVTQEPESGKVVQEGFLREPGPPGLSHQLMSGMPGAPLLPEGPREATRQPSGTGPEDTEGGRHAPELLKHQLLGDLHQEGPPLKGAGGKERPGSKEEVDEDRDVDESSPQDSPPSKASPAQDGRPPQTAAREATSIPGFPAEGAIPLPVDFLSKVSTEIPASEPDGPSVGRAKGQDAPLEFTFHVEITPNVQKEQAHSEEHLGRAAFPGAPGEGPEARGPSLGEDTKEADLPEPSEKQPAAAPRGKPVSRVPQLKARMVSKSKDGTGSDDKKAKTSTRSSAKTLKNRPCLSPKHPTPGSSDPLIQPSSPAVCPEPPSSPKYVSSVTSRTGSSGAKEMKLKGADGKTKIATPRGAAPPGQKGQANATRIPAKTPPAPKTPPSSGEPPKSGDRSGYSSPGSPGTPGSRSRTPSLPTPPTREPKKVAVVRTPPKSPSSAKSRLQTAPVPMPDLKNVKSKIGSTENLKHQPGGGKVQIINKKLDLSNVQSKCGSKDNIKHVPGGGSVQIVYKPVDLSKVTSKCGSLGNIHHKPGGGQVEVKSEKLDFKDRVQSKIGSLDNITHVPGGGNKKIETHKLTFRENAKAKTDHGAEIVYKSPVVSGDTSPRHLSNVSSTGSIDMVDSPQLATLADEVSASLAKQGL
Experiment: qHTS for Inhibitors of Tau Fibril Formation, Thioflavin T Binding; note: nearly all actives have a fitted effect of over 55% in size
Details: recombinant tau K18 P301L, heparin-induced fibrillization, ThT fluorescence; series mostly up to 57.4 µM
In short: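 Using a mix of unlabeled (15 uM) and Alexa 594-labeled (0.24 uM) tau K18 P301L, heparin-triggered fibrillization over 6 hr at 37 C was scored by ThT fluorescence.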
Potency is the fitted concentration of half-maximal effect; tags give direction and shape of the fitted curve.

SMILES | Potency
CC1=C(/C=N/Nc2ccc([N+](=O)[O-])cc2[N+](=O)[O-])C(C)(C)CCC1 | inconclusive: 11.2 µM [inhibitor, partial curve]
CCOC(=O)c1sc2nc3c(SCC(=O)O)cc(C(=O)c4ccccc4O)cn3c(=O)c2c1C | inconclusive: 11.2 µM [inhibitor, partial curve]
COc1ccccc1CNc1nc(-c2ccco2)nn1S(C)(=O)=O | inactive
O=C(N/N=C/c1ccc([N+](=O)[O-])s1)c1ccccc1 | inconclusive: 25.1 µM [inhibitor, single point]
Cc1cccc(Cn2c(=O)n(CCCC(=O)NCc3ccccc3Cl)c(=O)c3ccccc32)c1 | inactive
N=C1C(c2nc3ccccc3s2)=C(O)CN1C1CCC(O)CC1 (centres undefined) | inconclusive: 44.7 µM [inhibitor, single point]
CCCN=C(C)C1=C(O)c2ccccc2C1=O | inactive
Fc1ccc(COc2ccccc2C(=S)N2CCCC2)cc1 | inconclusive: 39.8 µM [inhibitor, single point]
CCNc1nc(NCC)nc(N/N=C/c2ccc(O)c(OC)c2)n1 | inconclusive: 39.8 µM [inhibitor, single point]
CN(CCc1ccccn1)C(=O)c1nn2c(C(F)(F)F)cc(-c3ccco3)nc2c1Cl | inconclusive: 28.2 µM [inhibitor, single point]
C=CCn1c(C)cc(-c2csc(N)n2)c1C | active: 15.8 µM
CN1C(=O)/C(=C\c2ccc(-c3ccccc3)o2)SC1=S | inconclusive: 0.708 µM [inhibitor, full curve]
O=C(O)C(=O)/C(=C\c1ccccc1)c1ccc2ccccc2n1 | inconclusive: 17.8 µM [inhibitor, partial curve]
COc1ccc(N2C(=O)CSC23C(=O)N(Cc2cccc(C(F)(F)F)c2)c2ccccc23)cc1 (centres undefined) | inconclusive: 17.8 µM [inhibitor, single point]
Cc1ccc(Nc2c3c(nc4nc(-c5cccs5)nn24)CCCC3)cc1F | inconclusive: 39.8 µM [inhibitor, single point]
CSc1ccc([C@H]2CN3CCC[C@H]3c3ccccc32)cc1 | inconclusive: 25.1 µM [inhibitor, partial curve]
CCOC(=O)c1c(C)[nH]c(O)c1C=Nc1ccc(C(F)(F)F)cc1 | inconclusive: 17.8 µM [inhibitor, partial curve]
CCOC(=O)C1C(=O)OC2(CCCCC2)C1C(=O)OCC (centres undefined) | inactive
COc1ccc(CCNC(=O)CCn2c(SCC#N)nc3ccccc3c2=O)cc1OC | inactive
